From paper PMC4336329 (PLoS ONE, 2015)
The campaign covered roughly 310,000 compounds. About 14,000 (4.5%) showed an effect of 50% or more. The effect is printed as a negative number. The list shows a part of the results.

What follows are compounds tested against human ether-à-go-go-related gene (hERG) potassium channel (human, UniProt Q12809) (assay: primary screen, population patch clamp on CHO cells stably expressing hERG).
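Note: peak tail current of the secondary pulse compared with the same well before compound.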

human ether-à-go-go-related gene (hERG) potassium channel, sequence (Q12809 whole entry, looked up): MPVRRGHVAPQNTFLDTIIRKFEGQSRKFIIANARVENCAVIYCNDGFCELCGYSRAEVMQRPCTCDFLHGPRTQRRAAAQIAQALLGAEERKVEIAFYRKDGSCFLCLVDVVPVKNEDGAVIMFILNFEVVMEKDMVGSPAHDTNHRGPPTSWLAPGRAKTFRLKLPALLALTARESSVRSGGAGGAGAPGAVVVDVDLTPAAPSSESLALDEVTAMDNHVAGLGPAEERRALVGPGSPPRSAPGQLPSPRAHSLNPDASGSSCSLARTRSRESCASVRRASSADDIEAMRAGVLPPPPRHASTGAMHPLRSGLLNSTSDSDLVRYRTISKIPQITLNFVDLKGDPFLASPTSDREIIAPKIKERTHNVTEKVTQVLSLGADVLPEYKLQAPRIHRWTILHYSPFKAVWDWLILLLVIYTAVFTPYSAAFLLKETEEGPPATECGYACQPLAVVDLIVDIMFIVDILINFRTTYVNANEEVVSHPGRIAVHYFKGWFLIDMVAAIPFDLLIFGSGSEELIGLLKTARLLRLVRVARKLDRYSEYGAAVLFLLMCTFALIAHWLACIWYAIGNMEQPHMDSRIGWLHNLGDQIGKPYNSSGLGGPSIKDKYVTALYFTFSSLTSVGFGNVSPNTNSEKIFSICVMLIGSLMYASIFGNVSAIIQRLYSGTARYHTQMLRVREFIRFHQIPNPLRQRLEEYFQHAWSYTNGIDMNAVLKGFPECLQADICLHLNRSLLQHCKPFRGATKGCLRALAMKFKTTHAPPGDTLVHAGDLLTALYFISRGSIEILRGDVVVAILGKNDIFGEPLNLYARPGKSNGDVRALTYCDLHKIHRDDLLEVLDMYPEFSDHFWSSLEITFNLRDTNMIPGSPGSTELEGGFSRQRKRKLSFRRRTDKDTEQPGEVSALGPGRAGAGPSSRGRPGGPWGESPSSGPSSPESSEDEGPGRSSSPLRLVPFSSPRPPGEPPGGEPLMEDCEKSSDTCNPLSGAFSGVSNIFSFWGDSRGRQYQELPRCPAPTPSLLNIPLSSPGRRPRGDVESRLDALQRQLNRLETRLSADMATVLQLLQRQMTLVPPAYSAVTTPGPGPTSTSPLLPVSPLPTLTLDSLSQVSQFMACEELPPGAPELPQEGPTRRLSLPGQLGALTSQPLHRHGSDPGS

Row | Structure (SMILES) | hERG current change (%, negative = inhibition) at 10uM
1 | COC(=O)c1cc(-c2ccc(Br)cc2)c2c(=O)[nH]c(=O)n(C)c2n1 | 13.1%
2 | COc1ccc(/C=N/NC(=O)c2nn(-c3ccc(C)c(C)c3)c(=O)c3ccccc23)cc1 | 0.56%
3 | COc1ccc2[nH]c3c(c2c1)CCN1C(=O)N([C@@H](C)C(=O)NCc2ccco2)C(=O)[C@]31C | -53.8%
4 | Cc1ccccc1C(=O)N1N=C(c2ccc(NS(C)(=O)=O)cc2)CC1c1cccs1 (centres unmarked) | -26.1%
5 | COc1cc(/C=N/NC(=O)c2cccnc2)ccc1OCC(=O)Nc1c(C)cc(C)cc1C | 14%
6 | CN1CCN(C(=O)Nc2cccc(-c3ccccc3)c2)CC1 | -3.63%
7 | CCO.Cc1[nH]nc2c1C(c1cccs1)C1=C(CCCC1=O)N2 (centres unmarked) | 19.7%
8 | CCC(C)c1ccc(N2C(=O)NC(=O)/C(=C/c3cccn3CCOc3ccc(C)cc3)C2=O)cc1 (centres unmarked) | 24.1%
9 | O=C(CSc1nnc2ccccn12)Nc1nsc(-c2ccccc2)n1 | 7.47%
10 | Cc1c(O)c(=O)ccn1C | 15.2%
11 | CCOc1cc(/C=C2/NC(=O)N(Cc3ccccc3F)C2=O)ccc1O | 2.73%
12 | COC(=O)c1ccc(NC(=O)C(C)Oc2ccccc2)cc1 (centres unmarked) | -4.67%
13 | COc1ccc(OC(=O)c2cc3cc(Cl)ccc3oc2=O)cc1 | 7.17%
14 | CCC(C)NC(=O)CSc1nnc(-c2cc(OC)c(OC)c(OC)c2)c(-c2cc(OC)c(OC)c(OC)c2)n1 (centres unmarked) | 10.6%
15 | Cc1ccc(-c2oc3ccccc3c(=O)c2O)cc1 | 13.1%
16 | COc1ccc(C2=CC(=O)C[C@H](c3ccc(OC)c(OC)c3)C2)cc1 | 4.86%
17 | O=C(CN1CCN(S(=O)(=O)c2cccc(Br)c2)CC1)NCCc1cccs1 | -37.6%
18 | O=C(COc1ccc(F)cc1)Nc1nnc(-c2ccncc2)s1 | -6.52%
19 | COc1ccccc1N1CCN(C(c2cc3ccc(C)cc3[nH]c2=O)c2nnnn2C2CCCC2)CC1 (centres unmarked) | -25%
20 | CC(=O)Nc1ccc(NC(=O)C(C)OC(=O)C2CCCCC2)cc1 (centres unmarked) | -30.7%
21 | O=C(N/N=C\c1cccc(F)c1)c1ccc(Cn2cc(Br)c([N+](=O)[O-])n2)o1 | -33.9%
22 | COc1cccc2cc(C(C)N(CCCN3CCOCC3)C(=S)Nc3ccc(C)cc3)oc12 (centres unmarked) | -22.8%

Row | Structure (SMILES) | hERG current change (%, negative = inhibition) at 10uM
23 | Cc1ccc(NC(=O)CN(C)C(=O)c2ccccc2OCc2c(C)noc2C)cc1 | 0.00928%
24 | COC(=O)C1C2C=CC3(CN(CCc4ccccc4)C(=O)C13)O2 (centres unmarked) | 10.7%
25 | CCN(CC(=O)Nc1ccc(OC)cc1)C(=O)Cc1coc2cc(C)c(C)cc12 | -16%
26 | CC1(C)NC(=O)N(CCOCCOc2c(Cl)cc(Cl)cc2Cl)C1=O | -11.4%
27 | CC(C)CC(=O)N1CCC(O)(CS(=O)(=O)Cc2ccc(Cl)cc2)CC1 | -15.7%
28 | O=[N+]([O-])c1ccccc1S(=O)(=O)N1CCN(C2CCN(Cc3ccccc3)CC2)CC1 | -51.9%
29 | COc1cccc(/C=N/NC(=O)C(C)n2nc(C)c([N+](=O)[O-])c2C)c1O (centres unmarked) | -4.81%
30 | Cc1nn(Cc2ccccc2)c(C)c1NC(=O)c1cc(-c2ccc3c(c2)OCO3)on1 | 0.15%
31 | Cc1ccc(NC(=O)CN(C)C(=O)Cc2ccc(Cl)c(Cl)c2)cc1 | 11.8%
32 | CC(C)(C)N(Cc1ccccc1)C(=O)c1ccc(Br)o1 | 11.4%
33 | O=C(O)[C@H]1CCCC[C@H]1C(=O)Nc1cc([N+](=O)[O-])ccc1F | 15.6%
34 | Cc1cc(C)c(C(=O)COC(=O)c2ccc([N+](=O)[O-])o2)cc1C | 14.4%
35 | COc1ccc(Cl)cc1-n1c(C)ccc1C | 11.9%
36 | CCOc1ccc(Nc2nc(Cc3nnc(SCC(=O)NC4CCCCC4)n3C)cs2)cc1 | -33.1%
37 | COc1ccc(OCc2nnc(SCC(=O)N3c4ccccc4Sc4ccc(Cl)cc43)o2)cc1 | 1.07%
38 | Cc1cc(C)nc(N2CCC(C(=O)NCc3ccccc3F)CC2)n1 | 27%
39 | CN(C)c1ccc(/C=C/c2cc[n+]([O-])cc2)cc1 | -0.959%
40 | CCOc1ccccc1NC(=O)C1CCN(S(=O)(=O)c2ccc(OC)c(OC)c2)CC1 | 11.8%
41 | COc1cccc(C2C(C#N)=C(N)Oc3cc(C)n(Cc4ccco4)c(=O)c32)c1 (centres unmarked) | 0.831%
42 | CCc1ccc(S(=O)(=O)NCCc2csc(-c3ccccc3)n2)s1 | 5.95%
43 | O=C(CCc1ccccc1)Nc1nnc(-c2ccc3c(c2)OCCO3)o1 | 24.4%
44 | N#C/C(=C\c1ccc([N+](=O)[O-])cc1)C(=O)NCCCn1ccnc1 | -59.5%

Row | Structure (SMILES) | hERG current change (%, negative = inhibition) at 10uM
45 | CCOC(=O)c1cnn(-c2c(Cc3ccccc3)c(C)nc3c(-c4ccccc4)c(C)nn23)c1N | -1.57%
46 | COC(=O)C1=C(C)Nc2ncnn2C1c1cccnc1 (centres unmarked) | 2.93%
47 | Cc1cc(=O)[nH]c(SCC(=O)N2CCC(C(N)=O)CC2)n1 | 9.28%
48 | O=S(=O)(NCCSc1ccccn1)c1ccc(Br)cc1 | -20.7%
49 | O=C(CCCCCN1C(=O)c2ccccc2C1=O)Oc1ccc2c3c(c(=O)oc2c1)CCC3 | 9.86%
50 | CCc1cc(Br)ccc1N1C(=O)C2CC=CCC2C1=O (centres unmarked) | 5.21%
51 | COc1ccc(NC(=O)CSc2nc(O)cc(=O)n2C)cc1 | 16.7%
52 | CC(=O)N1CCc2cc(S(=O)(=O)CCC(=O)NCCc3ccccc3)ccc21 | 14.7%
53 | O=C(CN1CCCN(Cc2ccc(F)cc2Cl)C1=O)NCc1ccccc1 | -28.6%
54 | COc1ccccc1CCNC(=O)C(=O)NCC1OCCN1S(=O)(=O)c1ccc2c(c1)OCCO2 (centres unmarked) | -1.99%
55 | Cc1c(Br)c([N+](=O)[O-])nn1CC(=O)c1ccccc1 | 11.4%
56 | COC(=O)c1cc(S(=O)(=O)Nc2cccc(OC)c2)cn1C | 2.05%
57 | C=CCOC(=O)C1=C(C)NC(SCC(=O)N(CC)CC)=C(C#N)C1c1ccco1 (centres unmarked) | -51.3%
58 | O=C(O)C(c1ccccc1)N1C(=O)c2ccccc2C1=O (centres unmarked) | -0.853%
59 | Cc1[nH]n(C(C)(C)C)c(=O)c1Sc1ccc(Cl)cc1 | 17.8%
60 | O=C(c1ccc(S(=O)(=O)Nc2ccccc2F)cc1)N1CCCCCC1 | 2.93%
61 | COC(=O)[C@@]12CCCCN1[C@H](c1ccc(-c3ccc(C(C)=O)cc3)cc1)[C@H]1C(=O)N(C)C(=O)[C@H]12.O=C(O)C(F)(F)F | 5.62%
62 | CCC(=O)Oc1ccc2c(C)c(Cl)c(=O)oc2c1 | -6.57%
63 | Cc1ccc(N=CC2=C(O)CC(C)(C)CC2=O)nc1 | 7.82%
64 | O=C(c1cccnc1)C1CCCN(Cc2nc(Cc3ccccc3)no2)C1 (centres unmarked) | -6.76%
65 | COc1ccc2nc(NC(=O)CCNC(=O)c3ccccc3Cl)sc2c1 | -4.99%
66 | O=C(NNC(=O)c1ccc(O)cc1O)c1ccc(-c2ccccc2)cc1 | 19.6%

Row | Structure (SMILES) | hERG current change (%, negative = inhibition) at 10uM
67 | CC(C)(C)c1ccc(CNc2ccc([N+](=O)[O-])cn2)cc1 | 0.0826%
68 | O=C(c1oc2ccccc2c1N1CCCCC1)N1CCCCC1 | -29.4%
69 | CCn1c(/C=C/N(C(C)=O)c2ccccc2)[n+](CCCS(=O)(=O)[O-])c2cc(Cl)c(Cl)cc21 | 19.9%
70 | COc1ccc(OC)c(NC(=O)COC(=O)CN2C(=O)NC3(CCCC3)C2=O)c1 | 7.58%
71 | CCCCN(C)C1CCN(C(=S)Nc2cccc(SC)c2)CC1 | -59.8%
72 | O=C(Cc1ccccc1)NCC(=O)N1CCCCCC1 | 9.71%
73 | CC(NC(=O)c1cccc(S(=O)(=O)N(C)C)c1)c1nc2ccccc2[nH]1 (centres unmarked) | 0.75%
74 | O=C1CSC(c2ccccn2)N1c1ccc(Cl)c(Cl)c1 (centres unmarked) | -7.23%
75 | CCN1CCc2nc3sc(C(=O)N4CCc5ccccc5C4)c(N)c3cc2C1 | -3.21%
76 | O=C(CCc1c[nH]c2ccccc12)N1CCCC1 | 23.5%
77 | O=C(NN=C1CCCCCC1)c1ccc(Cl)s1 | 0.331%
78 | COc1ccc(C(C#N)N2N=C(C)CC2(C)C)cc1 (centres unmarked) | 8.22%
79 | Oc1ccccc1-c1cc(-c2cccc(F)c2)n[nH]1 | -1.38%
80 | Brc1ccc(CN2CCSCC2)cc1 | -65.1%
81 | O=C(CS(=O)(=O)Cc1ccccc1)Nc1ccc(Br)cc1F | 13.4%
82 | C/C(=N\Nc1ccc2nncn2n1)c1ccc(Cl)s1 | -1.54%
83 | CC(CC(=O)NCc1ccc(F)cc1)c1ccccc1 (centres unmarked) | 14.2%
84 | COc1ccc(-n2cnnc2SCC(=O)N2CCN(S(=O)(=O)c3ccccc3)CC2)cc1 | -30.8%
85 | CC(=O)Nc1ccc(NC(=O)CSc2nc(=O)n3cccc(C)c3n2)cc1 | 8.14%
86 | CN(CC(=O)Nc1ccc(F)cc1)C(=O)COC(=O)Cc1c(F)cccc1Cl | -11.5%
